{"source": "the supplement of paper PMC4604168 (melanoma cell lines)", "experiment_in_all_cases": "cell count relative to DMSO control; melanoma cells; higher = more viable cells", "conditions_in_all_cases": "library dose: standard library concentration; 72 h", "key": {"A101D": {"tested_on": "A101D"}, "A2058": {"tested_on": "A2058"}, "A375": {"tested_on": "A375"}}, "note": "The other results are listed elsewhere or left out. Many values rest on one well or one pass, so single values are uncertain.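 Also: cells treated in 1,536-well plates, then fixed and DAPI-stained, with nuclei counted from automated high-throughput microscope images.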", "data": [{"smiles": "Cn1c(=O)n(-c2ccc(C(C)(C)C#N)cc2)c2c3cc(-c4cnc5ccccc5c4)ccc3ncc21", "note": "+ C=CCn1c(=O)c2cnc(Nc3ccc(N4CCN(C)CC4)cc3)nc2n1-c1cccc(C(C)(C)O)n1 [MK1775] (first compound 0.02 µM, partner dose 0.1 µM)", "values": [{"measurement": "cell count", "setting": "A101D", "result": 59.6, "unit": "%"}, {"measurement": "cell count", "setting": "A2058", "result": 59.8, "unit": "%"}, {"measurement": "cell count", "setting": "A375", "result": 42.8, "unit": "%"}]}, {"smiles": "Cc1cn(-c2cc(NC(=O)c3ccc(C)c(Nc4nccc(-c5cccnc5)n4)c3)cc(C(F)(F)F)c2)cn1", "note": "[nilotinib] + CCCCCCCCc1ccc(CCC(N)(CO)CO)cc1 [fingolimod] (first compound 1 µM, partner dose 10 µM)", "values": [{"measurement": "cell count", "setting": "A101D", "result": 6.52, "unit": "%"}, {"measurement": "cell count", "setting": "A2058", "result": 9.67, "unit": "%"}, {"measurement": "cell count", "setting": "A375", "result": 37.3, "unit": "%"}]}, {"smiles": "COc1ccc(C2=N[C@@H](c3ccc(Cl)cc3)[C@@H](c3ccc(Cl)cc3)N2C(=O)N2CCNC(=O)C2)c(OC(C)C)c1", "note": "[Nutlin-3] + COc1cc(Nc2ncc(F)c(Nc3ccc4c(n3)NC(=O)C(C)(C)O4)n2)cc(OC)c1OC [Tamatinib] (first compound 0.5 µM, partner dose 2 µM)", "values": [{"measurement": "cell count", "setting": "A101D", "result": 31.4, "unit": "%"}, {"measurement": "cell count", "setting": "A2058", "result": 67, "unit": "%"}, {"measurement": "cell count", "setting": "A375", "result": 81.3, "unit": "%"}]}]}
